According to ChEMBL document CHEMBL4888484, “Replenishing the malaria drug discovery pipeline: Screening and hit evaluation of the MMV Hit Generation Library 1 (HGL1) against asexual blood stage Plasmodium falciparum ,using a nano luciferase reporter read-out” (2022):
In all, about 150,000 compounds went through this assay and about 540 (0.36%) showed an effect of 50% or more. Some of the results follow.

Test system: Plasmodium falciparum
Experiment: Primary screen in NF54 nanoGlo assay, in single point, at 2uM, 72h; a lower Z score goes with more inhibition
Type: functional, Erythrocyte
Details: timepoint 72 hour

Compound	% Inhibition [%]	Z score
c1cc(CN2CCC(OC[C@H]3CCCO3)CC2)ccn1	-3	0.26
COCCc1noc(CNC(=O)[C@@H]2CCc3ccccc32)n1	-5	0.76
C[C@@H](CCc1cccc(F)c1)C(=O)NS(C)(=O)=O	16	-2.3
Cc1c(C(=O)N2CCCC2)oc2ccc3c(c12)[C@@H](O)CC1(CCCCC1)O3	2	-0.33
Cc1c(Cl)cc(NC(=O)NCCO)cc1Cl	6	-0.89
CN(Cc1cnc(N(C)CC(=O)O)nc1)CC1CCCC1	4	-0.64
CCC(C)(C)NC(=O)c1ccc(OC)cc1OC	-1	0.14
CC(C)[C@H](OC(=O)n1ccnc1)C(=O)OC(C)(C)C	39	-5.02
CCc1cccc(Nc2c(C(=O)N3CCCCCC3)cnc3nc(C)ccc23)c1	-7	1.22
CCc1ccccc1C(=O)N(Cc1ccccn1)C1CCNCC1	6	-0.92
Cc1cc(C)c(CN2CCC(N3CCC[C@H](C(=O)NC4CC4)C3)CC2)cc1C	-2	0.36
CC[C@@H](CO)N1CCN(C(=O)C(C)(C)OC)CC1	-18	2.28
CCc1oc(C(=O)N(C)Cc2cc(COC)[nH]n2)cc1CN(CC)CC	-1	0.2
O=C(c1csc2cncn12)N1CCCC12CCC2	-2	0.44
COc1ccc(C(=O)N2CCCCC[C@@H]2CN2CCOCC2)cc1	-9	1.48
O=C(NCc1ccc2c(c1)OCO2)N1CC(Oc2cccc(C(F)(F)F)n2)C1	-6	1.06
COc1ccccc1N1CCN(CC(=O)Nc2c3c(nc4ccccc24)N(c2cccc(C)c2)CC3)CC1	39	-4.99
Cn1nccc1C(=O)N1CC[C@@H](n2c(=O)n(C)c3cccnc32)C1	0	-0.09
CC(=O)NC[C@H](O)c1ccc(-c2ccco2)cc1	1	-0.1
COc1ccccc1C(C)(C)c1noc(C2C[C@H]3C[C@@H](N)[C@H]3C2)n1 (stereo not given in full)	11	-1.69
CCOC(=O)C1=C(C(=O)OCC)SC(=C2C(=S)C(C)(C)N(C(=O)CN3C(=O)c4ccccc4C3=O)c3c(OC)cccc32)S1	-8	1.36
Cc1ccc(C(=O)Nc2ccc(N3CCCN(C(=O)CC(C)C)CC3)c(C(=O)NCc3ccc(F)cc3)c2)cc1	5	-0.78

Compound	% Inhibition [%]	Z score
C#CCC(NC(=O)N1CC(C)OCC1C)c1ccccc1 (stereo not given)	6	-0.95
O=C(c1c(F)cccc1OC(F)F)N1CCCc2n[nH]cc21	-2	0.28
CCOc1ccccc1CNC(=O)c1nc(Nc2ccccc2)c2ccccc2n1	1	-0.22
CCN(Cc1ccc2ccccc2n1)C(=O)Cc1cc(C)on1	0	0.02
CO[C@H]1CCN(c2ccc(NC(=O)CCc3c(Cl)cccc3Cl)cc2)C1	-17	2.18
O=C1N[C@H]2CCC[C@@H]1CN(Cc1ccc(CN3CCCCC3)s1)C2	0	0.06
Cc1cc(C(N)=O)c(-c2cccc(C(=O)N[C@H]3CCC(=O)N(C)C3)c2)nc1C	-22	1.96
O=C(Cc1ccccc1F)N1CCc2[nH]nc(C(=O)N3CCCC3)c2C1	-5	0.82
CCn1cc(-c2ccc(N3CCOCC3)cc2)cc1C#N	-4	0.63
COC(=O)c1sc(NCC2CC3CCCC3O2)nc1C (stereo not given)	-18	2.09
Cc1ccoc1CNC(=O)N1CC(N2CCOCC2)CC1C (stereo not given)	-9	1.64
Cc1noc(C)c1CO[C@H]1CCOC[C@H]1NC(=O)c1ccnnc1	-7	1.09
Cn1cnc([C@H]2CN(C(=O)NC(C3CCC3)C3CCC3)C[C@@H]2N)c1	-2	0.43
COc1cccc(Cn2cccc(S(=O)(=O)N3CCCC3)c2=O)c1	-16	2.11
CCN1CC[C@H](NC(=O)c2cccnc2)C1=O	-7	1.04
CCCC(C)(C)NC(=O)c1c[nH]c(=O)c(Cl)c1	6	-0.76
Cc1cc(OCC(=O)NCCn2nc(-n3cncn3)ccc2=O)cc(C)c1Cl	-4	0.73
CC(C)(C)c1cc(CN2CCn3cncc3C2)n[nH]1	-10	1.3
C1CCC(Cc2noc([C@H]3CCCc4[nH]nnc43)n2)C1	-16	2.24
COc1ccc(N2CCN(C(=O)COc3ccc(Cl)cc3)[C@@H](C)C2=O)cc1	-12	2.02
CC(C)(C)OC(=O)N1CCC(CC(=O)NCCOCCn2cccn2)CC1	-2	0.37
CCOC1CC(N(C)C(=O)c2c[nH]c3cccnc23)C12CCCCC2 (stereo not given)	4	-0.78

Compound	% Inhibition [%]	Z score
O=C(C[C@H]1C(=O)NCCN1Cc1ccccc1)NC1(CO)CCCC1	-9	1.13
O=C(Nc1ccnn1C1CCN(c2ccnc3ccccc23)CC1)[C@H]1CCOC1	-13	1.42
COc1ccccc1CN[C@H](C(=O)OC(C)(C)C)c1ccccc1	-3	0.28
Cc1ccc(S(=O)(=O)CC(=O)N2CCCc3ccccc32)cc1	-1	0.17
Cc1ccc(C)c(CC(=O)N2CCC(N3CC=CC3)CC2)c1	-10	1.34
OCC1(CCCc2ccccc2)CCN(CC#Cc2ccccc2)CC1	-14	1.6
Cc1ccc2c(c1C)N(S(=O)(=O)c1ccoc1)CCC2	11	-1.18
O=C1COCC(=O)N1Cc1cccc(Br)c1	-5	0.88
CCn1cc(CC(=O)NCc2cc(F)cc(F)c2)c2cccnc21	-17	1.96
CCCn1nc(C(=O)N(CCC(C)C)CCC(C)C)ccc1=O	-10	0.85
CCn1nccc1C(=O)Nc1ccc2c(c1)OCO2	-15	2.63
CCC(=O)Nc1cc(NC(=O)N(CC)CC2CCOCC2)ccc1OC	-8	1.44
C[C@H]1CN(S(=O)(=O)N2CCCCCCC2)CCO1	-14	1.96
CC1CCC(NC(=O)NCC2CS(=O)(=O)c3ccccc32)CS1(=O)=O (stereo not given)	-6	1.03
CCOC(=O)CCC(=O)Nc1cc2c(cc1F)N(C)S(=O)(=O)N2C	13	-1.68
CCc1ccc(CNC(=O)c2cn3c(n2)C(=O)N(CCOC)CC3)cc1	-14	1.85
COc1ccc(Nc2nc(N3CCOCC3)nc3ccccc23)c(OC)c1	6	-0.79
COc1ccc2nc(-n3nc(C)cc3NC(=O)c3ccno3)sc2c1	-14	2.11
Cn1nc(C(=O)N2CCNC(=O)[C@@H]2c2cccs2)c2c1CCCC2	-11	1.44
O=C1CN(c2ccc(CNC(=O)C3CC4CCC3C4)cc2)CCN1 (stereo not given)	0	0.04
O=C(Nc1cc(S(=O)(=O)N2CCCC2)ccc1O)c1cncc(Br)c1	27	-3.46
COc1ccc([C@@H](C)CN2CC(C3CS(=O)(=O)C3)C2)cc1	2	-0.33

Compound	% Inhibition [%]	Z score
Cc1ccccc1-n1c(=O)cc(N2CCc3ccccc32)[nH]c1=O	2	-0.41
O=C(Cc1n[nH]c2c1CCCC2)NC[C@H]1CCCC2(CCC2)O1	-6	1.09
Nc1cc(Br)c(OC(F)(F)F)cc1N	-7	0.9
CNC(=O)CCCN(C)Cc1ccc(Cl)cc1F	0	0.04
CCc1nc(NCCN2CCCC2)c2cc(Cl)cc(Cl)c2n1	-3	0.52
COc1ccc(-c2cnc3ncnn3c2N2CCCN(S(=O)(=O)c3cccc(Cl)c3C)CC2)cc1	-7	0.73
CS(=O)(=O)Nc1ccc2c(c1)NC(=O)C[C@@H]2c1cnc2ccccc2n1	-1	0.12
CC(C)(C)NS(=O)(=O)Cc1cccc(N)c1	-11	1.62
Cc1cc(C(=O)N2CCCCC[C@H]2c2nnc(C)o2)c(C)o1	-8	1.6
Cc1cc(NC(=O)CN2CCCC[C@H]2c2nc(C)cs2)on1	-4	0.75
CCCC1(CCC)CCCN1C(=O)c1ccc(=O)n(CC)n1	-8	1.04
CCc1cnc(C)nc1N1CCC(NCCCc2nc(C)cs2)CC1	-4	0.77
CC(=O)N1CCC[C@H](NS(=O)(=O)c2ccnn2C(C)C)C1	0	-0.02
CCN1CC(=O)N[C@H]2CN(C(=O)c3cccn4cc(C)nc34)CC[C@@H]2OCc2cccc(c2)Oc2cc(OC(C)C)cc(c2)C1=O	-1	0.17
CC(CC1OCC(C[N+]2(Cc3ccccc3)CCCCC2)O1)CC(C)(C)C (stereo not given)	60	-5.21
CCc1ccc2nc(C)cc(C(=O)N3CCc4cc(C(N)=O)n(C)c4C3)c2c1	-11	1.92
Cc1ccsc1-c1nnc(CC(=O)NCc2ccccc2)o1	-17	1.66
O=S(=O)(c1cccc(F)c1)N1C[C@H]2CNC[C@@H](C1)O2	-8	1.07
Cc1ccc2c(n1)OCCN2C(=O)CCn1cccn1	-14	1.64
